The supplement of paper PMC12217912
This is one part of the list. The full chains were built here from the parent and the listed change. Inactive controls read about 0.05.

B1: TEV protease; numbered along this chain (parent)
chain: MGESLFKGPRDYNPISSSICHLTNESDGHTTSLYGIGFGPFIITNKHLFRRNNGTLVVQSLHGVFKVKDTTTLQQHLVDGRDMIIIRMPKDFPPFPQKLKFREPQREERICLVTTNFQTKSMSSMVSDTSCTFPSGDGIFWKHWIQTKDGQCGSPLVSTRDGFIVGIHSASNFTNTNNYFTSVPKNFMELLTNQEAQQWVSGWRLNADSVLWGGHKVFMVKPEEPFQPVKEATQL

Variants of: B1
Experiment: raw area under fraction-flipped curve 0-4 h after induction (AUC4h, not background-subtracted), DNA-recorder readout of cleavage of the substrate (dimensionless); higher = more cleavage of the substrate by the protease variant
Conditions: temperature: 34 °C; time window: 0-4 h after rhamnose induction
Method: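 In vivo DNA recorder in E. coli TOP10(DE3) ΔrhaA at 34 °C. Each TEVp single-site mutant (parent TEVp 0) is paired with a single-site variant of the 7-mer TEVs (canonical ENLYFQ|S). The substrate sits between flexible linkers in a Bxb1-sfGFP-TEVs-SsrA fusion, so cleavage stabilises Bxb1 and speeds flipping of a recombination array, read by NGS. The value is the raw area under the fraction-flipped curve over 0-4 h after rhamnose induction (AUC4h), with ≥20 reads per time point. It is not background-subtracted; inactive controls average about 0.047.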
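Also: Bxb1 expression induced with 0.2% (w/v) L-rhamnose at OD600 near 0.5, cultures sampled hourly, flipped fraction per protease–substrate barcode pair counted by paired-end Illumina sequencing.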

Variant: K148P
- area with substrate ANLYFQS: 0.0379
- area with substrate CNLYFQS: 0.059
- area with substrate FNLYFQS: 0.0708
- area with substrate GNLYFQS: 0.0707
- area with substrate INLYFQS: 0.0303
- area with substrate KNLYFQS: 0.0623
- area with substrate LNLYFQS: 0.0693
- area with substrate MNLYFQS: 0.0448
- area with substrate PNLYFQS: 0.0635
- area with substrate QNLYFQS: 0.0446
- area with substrate SNLYFQS: 0.0565
- area with substrate TNLYFQS: 0.0396
- area with substrate WNLYFQS: 0.0377

Variant: V126R
- area with substrate ANLYFQS: 0.0655
- area with substrate DNLYFQS: 0.0984
- area with substrate FNLYFQS: 0.0635
- area with substrate GNLYFQS: 0.0591
- area with substrate HNLYFQS: 0.0581
- area with substrate INLYFQS: 0.0668
- area with substrate KNLYFQS: 0.074
- area with substrate LNLYFQS: 0.0806
- area with substrate MNLYFQS: 0.0796
- area with substrate NNLYFQS: 0.0688
- area with substrate PNLYFQS: 0.0691
- area with substrate QNLYFQS: 0.0841
- area with substrate SNLYFQS: 0.0886
- area with substrate TNLYFQS: 0.0706
- area with substrate VNLYFQS: 0.0692
- area with substrate WNLYFQS: 0.0625
- area with substrate YNLYFQS: 0.0974

Variant: P155C
- area with substrate ANLYFQS: 0.0632
- area with substrate CNLYFQS: 0.0496
- area with substrate FNLYFQS: 0.0652
- area with substrate HNLYFQS: 0.069
- area with substrate INLYFQS: 0.059
- area with substrate KNLYFQS: 0.0611
- area with substrate LNLYFQS: 0.0712
- area with substrate MNLYFQS: 0.0569
- area with substrate NNLYFQS: 0.0769
- area with substrate PNLYFQS: 0.0611
- area with substrate QNLYFQS: 0.0743
- area with substrate SNLYFQS: 0.0197
- area with substrate TNLYFQS: 0.0638
- area with substrate WNLYFQS: 0.0584

Variant: P155Y
- area with substrate ANLYFQS: 0.0486
- area with substrate CNLYFQS: 0.0693
- area with substrate FNLYFQS: 0.0543
- area with substrate GNLYFQS: 0.0474
- area with substrate HNLYFQS: 0.0591
- area with substrate INLYFQS: 0.0374
- area with substrate KNLYFQS: 0.058
- area with substrate LNLYFQS: 0.0524
- area with substrate MNLYFQS: 0.0422
- area with substrate PNLYFQS: 0.0567
- area with substrate SNLYFQS: 0.0465
- area with substrate TNLYFQS: 0.037
- area with substrate VNLYFQS: 0.0548
- area with substrate WNLYFQS: 0.0527
- area with substrate YNLYFQS: 0.0391

Variant: D161T
- area with substrate ANLYFQS: 0.0257
- area with substrate DNLYFQS: 0.113
- area with substrate GNLYFQS: 0.0683
- area with substrate HNLYFQS: 0.065
- area with substrate INLYFQS: 0.0715
- area with substrate KNLYFQS: 0.0704
- area with substrate LNLYFQS: 0.0654
- area with substrate NNLYFQS: 0.0626
- area with substrate PNLYFQS: 0.092
- area with substrate SNLYFQS: 0.066
- area with substrate TNLYFQS: 0.0541
- area with substrate WNLYFQS: 0.0538

Variant: D161H
- area with substrate ANLYFQS: 0.0582
- area with substrate CNLYFQS: 0.0643
- area with substrate GNLYFQS: 0.0727
- area with substrate HNLYFQS: 0.0436
- area with substrate KNLYFQS: 0.0512
- area with substrate LNLYFQS: 0.0613
- area with substrate MNLYFQS: 0.055
- area with substrate NNLYFQS: 0.0536
- area with substrate PNLYFQS: 0.0653
- area with substrate SNLYFQS: 0.0755
- area with substrate TNLYFQS: 0.05
- area with substrate VNLYFQS: 0.0786

Variant: D149N
- area with substrate ANLYFQS: 0.0487
- area with substrate DNLYFQS: 0.0612
- area with substrate FNLYFQS: 0.0584
- area with substrate GNLYFQS: 0.0935
- area with substrate HNLYFQS: 0.0901
- area with substrate INLYFQS: 0.0855
- area with substrate LNLYFQS: 0.0602
- area with substrate NNLYFQS: 0.0582
- area with substrate PNLYFQS: 0.0716
- area with substrate QNLYFQS: 0.0556
- area with substrate TNLYFQS: 0.0682
- area with substrate VNLYFQS: 0.0593
- area with substrate WNLYFQS: 0.0558
- area with substrate YNLYFQS: 0.0535

Variant: D149K
- area with substrate ANLYFQS: 0.0684
- area with substrate CNLYFQS: 0.0578
- area with substrate FNLYFQS: 0.06
- area with substrate HNLYFQS: 0.0488
- area with substrate INLYFQS: 0.0609
- area with substrate KNLYFQS: 0.0511
- area with substrate LNLYFQS: 0.0653
- area with substrate NNLYFQS: 0.0704
- area with substrate PNLYFQS: 0.0542
- area with substrate QNLYFQS: 0.0598
- area with substrate RNLYFQS: 0.0301
- area with substrate SNLYFQS: 0.0655
- area with substrate VNLYFQS: 0.0759
- area with substrate WNLYFQS: 0.0675
- area with substrate YNLYFQS: 0.0595

Variant: W141G
- area with substrate ANLYFQS: 0.0627
- area with substrate CNLYFQS: 0.0356
- area with substrate GNLYFQS: 0.0642
- area with substrate HNLYFQS: 0.0563
- area with substrate INLYFQS: 0.055
- area with substrate NNLYFQS: 0.0522
- area with substrate PNLYFQS: 0.0588
- area with substrate QNLYFQS: 0.051
- area with substrate SNLYFQS: 0.0623
- area with substrate VNLYFQS: 0.0779
- area with substrate WNLYFQS: 0.0529
- area with substrate YNLYFQS: 0.0498

Variant: W141Q
- area with substrate ANLYFQS: 0.0525
- area with substrate DNLYFQS: 0.0635
- area with substrate FNLYFQS: 0.0499
- area with substrate HNLYFQS: 0.0378
- area with substrate KNLYFQS: 0.0553
- area with substrate LNLYFQS: 0.0567
- area with substrate RNLYFQS: 0.0645
- area with substrate SNLYFQS: 0.0419
- area with substrate TNLYFQS: 0.0599
- area with substrate WNLYFQS: 0.0531
- area with substrate YNLYFQS: 0.0518

Variant: S130C
- area with substrate ANLYFQS: 0.0625
- area with substrate CNLYFQS: 0.0556
- area with substrate KNLYFQS: 0.0762
- area with substrate LNLYFQS: 0.0806
- area with substrate NNLYFQS: 0.0777
- area with substrate SNLYFQS: 0.09
- area with substrate TNLYFQS: 0.066
- area with substrate WNLYFQS: 0.0654

Variant: S130G
- area with substrate ANLYFQS: 0.044
- area with substrate CNLYFQS: 0.0645
- area with substrate HNLYFQS: 0.0329
- area with substrate INLYFQS: 0.0587
- area with substrate LNLYFQS: 0.072
- area with substrate MNLYFQS: 0.0546
- area with substrate PNLYFQS: 0.0668
- area with substrate QNLYFQS: 0.0654
- area with substrate SNLYFQS: 0.0634
- area with substrate TNLYFQS: 0.0508
- area with substrate VNLYFQS: 0.0708
- area with substrate WNLYFQS: 0.0652

Variant: S130N
- area with substrate ANLYFQS: 0.0525
- area with substrate CNLYFQS: 0.0675
- area with substrate HNLYFQS: 0.0717
- area with substrate INLYFQS: 0.0622
- area with substrate KNLYFQS: 0.0592
- area with substrate LNLYFQS: 0.0718
- area with substrate PNLYFQS: 0.0606
- area with substrate VNLYFQS: 0.0721
- area with substrate WNLYFQS: 0.0554

Variant: S130Q
- area with substrate ANLYFQS: 0.066
- area with substrate CNLYFQS: 0.077
- area with substrate HNLYFQS: 0.0685
- area with substrate INLYFQS: 0.0815
- area with substrate KNLYFQS: 0.0594
- area with substrate LNLYFQS: 0.0752
- area with substrate NNLYFQS: 0.0505
- area with substrate QNLYFQS: 0.0596
- area with substrate VNLYFQS: 0.0588
- area with substrate YNLYFQS: 0.0643
